The RNAGym collection of RNA variant scans (doi:10.1073/pnas.2313332121)
Variants at the floor of the assay are shown more often than the library holds them.

B1: TPR 5TU (parent)
chain: GGAUCUUCUCGAUCUAACAAAAAAGACAAAUCUGCCACAAAGCUUGAGAGCAUCUUCGGAUGCAGAGGCGGCAGCCUUCGGUGGCGCGAUAGCGCCAACGUUCUCAACUAUGACACGCAAAACGCGUGCUCCGUUGAAUGGAGUUUAUCAUG

Variants of: B1
Assay: polymerase ribozyme fitness, log enrichment relative to wild type (log ratio); higher = more active; in vitro selection for triplet polymerase activity
Summary of the method: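 Mutant libraries were PCR-built and transcribed for each subunit of a heterodimeric triplet polymerase ribozyme and selected for one round in triplicate at −7 °C, frozen, before gel excision of extended constructs and streptavidin-bead capture. Input and output libraries were Illumina-sequenced, keeping genotypes with ≥10 input reads and ≥1 read per output. Fitness is a logarithmic ratio of genotype to wild-type enrichment, in base 2, using inverse-variance-weighted replicate averages.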

Variant | polymerase ribozyme fitness (log ratio)
C57U G59A G86A U134A U148A | ≤ -4.2
U55G G58C C76U G80A G88A C96G U109C A110G G141A U146G | ≤ -4.2
U56A A73G | -0.236
U56A A73G C87G | ≤ -4.2
U55C G65C C85G C99G U146G | ≤ -4.2
U56G U82A A89G C95U G133C | -3.49
U55G C57G A97G A106C | -3
U56A G67C C85A C108G G140A | ≤ -4.2
U55G A89G G124C U146C | -1.44
U55A U56A G65A C85U U90G G136C | ≤ -4.2
C57U G88U G100A A107C | ≤ -4.2
C57U C114G | -2.73
U55G A107U A122U | -3.21
U56C C87U A89G U101G | -2.81
G58A A73U U101G U102A U109A | ≤ -4.2
U55G U56A G68A C96U | ≤ -4.2
C57G G58A A91G | -3.24
C57A A60C | -1.35
U55C C75G C76U G80A C87G C108U | ≤ -4.2
C57A C87U C103G | -2.01
C57U G86A | -1.16

Variant | polymerase ribozyme fitness (log ratio)
C57A C63U C87U G94C A97U G117U U134G | ≤ -4.2
G58A G59C G84U C85U G86U A121C U139G | ≤ -4.2
U55G G80A | -2.09
G58C A60G C75U | 0.32
U56G G67A G86U A97G | ≤ -4.2
C57A A66U G88A U101G | ≤ -4.2
U56G U78C C85A C123U | -1.43
C57G G71A C96A U146A | -4.05
C57A C79U C85U G92A C95G | ≤ -4.2
U55G G86A U139G | -1.96
C57U G59A C85U C95G | -2.02
U55G A60G | 0.467
U56A C79U C93U A115C A147G | ≤ -4.2
U56A G58C C85U | -0.365
U56A G59A A97U C149U | -1.48
G58A A66G C93U C99U | ≤ -4.2
C57A C72U A150U | -0.157
G58C C87A | ≤ -4.2
G58C C87U | -1.59
U55G C105U G141U U145C U146G | -3.09
G58A C87U G100C A122C G126A G141U | ≤ -4.2

Variant | polymerase ribozyme fitness (log ratio)
C57A G92U | -0.638
U56A G83U C93G | ≤ -4.2
U56A A115C | -0.798
U55G G92U U139G U146G | -1.4
U55G G58A C93A U109G | -3.3
U55G C79A C85G | ≤ -4.2
U55G G81A C118U U135G | -3.84
C57G U78A | ≤ -4.2
C57U G65U C93A A110C | ≤ -4.2
C57U G62C A64C A66G C95A A142U | ≤ -4.2
C57U G59C A66C A91G U134A | ≤ -4.2
C57A C75A U134G | ≤ -4.2
C57A C75U U82G G92C A110U G140C U151C | ≤ -4.2
U56G C76U C103A | ≤ -4.2
C57A C87U G100U G124A | ≤ -4.2
C57A C85U A107G | ≤ -4.2
G58C C93U | -1.71
G58C A66U C93U G143A | ≤ -4.2
U56A C118U C123G U144C | -0.722
C57G C87U A91C C129G U130A U135A G141U A150C | ≤ -4.2
G58A G94C | -0.674

Variant | polymerase ribozyme fitness (log ratio)
G58A G94A | -0.945
C57G G70C C75U U78G C114U C132G G141C | ≤ -4.2
U56A C79U U82G C85U A122G C129A G136U | ≤ -4.2
C57G U139C | ≤ -4.2
C57U G74C A106C | ≤ -4.2
C57A G86U C123U C125U | -0.745
C57U C85A G100U A138G | ≤ -4.2
U56A G70C U78A U82A C131A | ≤ -4.2
U56A U144A | -0.302
U56A G68C U90C C96U U127C | ≤ -4.2
U55G A91C | ≤ -4.2
G58C A66C C93A | ≤ -4.2
U55G U134C G143U | -1.98
U56G U146G | -3.46
U55G G67U A73U G84U G86U | ≤ -4.2
C57G C99U U111G G124U | ≤ -4.2
C57A G62A G81U A113G A120U U127C G136A A142C | ≤ -4.2
G58C A60C A91U A115C U148G | ≤ -4.2
U56C G81U G92U C108G | ≤ -4.2
U55A U82G C116A A121U A137C | -3.5
U56A C93U A98U C108U A122C G128A U144C | ≤ -4.2
